According to PubChem BioAssay AID743279 (National Center for Advancing Translational Sciences (NCATS), 2014):
Values joined by “and” are separate entries in the source; they are usually repeats but may differ in a detail not shown here. Identical values can stand only once. The whole screen tested about 360,000 compounds, of which about 17,000 (4.7%) were called active. The inconclusive results got no clear call from the source; some entries with a clear call stand among them for comparison. Rule as the data show it: active = activity change below about -50%; inconclusive = mostly about -30% to -49%; inactive = weaker than that.
% is scaled to controls: 0 for no effect and ±100 for the full control effect.

Assay: qHTS for Inhibitors of Inflammasome Signaling: IL-1-beta AlphaLISA Primary Screen
Settings: THP-1 LPS/ATP IL-1B secretion, 16 h; at 57.5 µM, hits give low values
Method in brief: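 Secreted IL-1B measured by AlphaLISA bead assay after 16 h compound exposure of THP-1 cells; compounds (final up to 57.5 uM) added 1 h before LPS (250 ng/mL) and ATP (1.25 mM) stimulation; lower signal means less secretion.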
For `O=C(Nc1ccc2c(c1)ncn2C1CCCCC1)c1ccco1`, the activity change was inconclusive: -46.9%.
For `Cc1c(C(=O)O)sc2nc(C)n(C)c(=O)c12`, the activity change was inconclusive: -43.1%.
With `CC1=CC(C)(C)N2C(=O)C3(N=C(N)NC(Nc4ccccc4)=N3)c3cc(C)cc1c32` (configuration not stated) the activity change was active: -78.1%.
In the case of `CCOc1ccc(CNC(=O)C2CCN(c3nn4c(=O)cc(C)nc4s3)CC2)cc1`, the activity change is reported as inactive: -4.13%.
For `O=C(CCc1ccc(Oc2cc([N+](=O)[O-])cc([N+](=O)[O-])c2)cc1)Nc1cccc(Cl)c1`, the activity change was inconclusive: -38.9%.
With `CC(C)(C)Cc1nnc(NC(=O)c2ccco2)s1` the activity change was inconclusive: -33.8%.
For `O=C1CC2(CCN(C(=O)C(=O)c3c[nH]c4ccccc34)CC2)Oc2ccccc21`, the activity change was inconclusive: -42.4%.
With `Cc1ccccc1Cn1nc(C)c(NC(=O)C2c3ccccc3Oc3ccccc32)c1C` the activity change was inactive: 16.6%.
With `CCOC(=O)C1=C(C)NC(SC)=NC1c1ccc(OC)cc1` (configuration not stated) the activity change was active: -50.4%.
For `CC1Cc2ccccc2N1S(=O)(=O)c1cnc(Cl)c(Cl)c1` (configuration not stated), the activity change was inconclusive: -49.1%.
In the case of `COc1cc(OC)cc(C(=O)N2CCN(S(=O)(=O)c3ccc(Cl)s3)CC2)c1`, the activity change is reported as inconclusive: -33.4%.
With `O=C(C1CCCCN1S(=O)(=O)c1ccccc1[N+](=O)[O-])N1CCCCC1` (configuration not stated) the activity change was inactive: -21%.
With `O=C(O)C1Nc2c(C(F)(F)F)ccc(Cl)c2C2C=CCC12` (configuration not stated) the activity change was inconclusive: -45.9%.
In the case of `COC(=O)C(NS(=O)(=O)c1ccc(N2CCCC2=O)cc1)c1ccccc1` (configuration not stated), the activity change is reported as inactive: 0%.
With `COc1ccc(C(=O)/C=C/Nc2ccc(C)cn2)cc1OC` the activity change was inconclusive: -43%.
In the case of `CCN(CC)c1ccc(S(=O)(=O)N2CCOCC2)cc1NC(=O)CN1CCc2ccccc2C1`, the activity change is reported as active: -110%.
In the case of `COc1ccccc1C(=O)Nc1ccc(S(=O)(=O)N2CCCCC2c2cccnc2)cc1` (configuration not stated), the activity change is reported as inactive: -3.93%.
With `CC(C)c1ccccc1OCC(O)CN(CC(O)COc1cccc2ccccc12)C(C)C` (configuration not stated) the activity change was active: -104%.
For `Nc1c(C(=O)Nc2ccc(F)cc2)sc(=S)n1-c1ccccc1F`, the activity change was inconclusive: -35.1%.
In the case of `CN(C(=O)CN(CCO)CC(=O)N(C)C(C)(C)Cc1ccccc1)C(C)(C)Cc1ccccc1`, the activity change is reported as inconclusive: -49.9%.
With `Cc1c(/C=N/NC(=O)c2ccc(O)cc2)c2ccccn2c1C(=O)c1ccc(F)cc1` the activity change was inconclusive: -30.1%.
In the case of `O=C(OCc1ccccc1)N1CCC2CC1c1cc(Cl)ccc12` (configuration not stated), the activity change is reported as inconclusive: -31.7%.
In the case of `O=C(CC(=O)c1cccnc1)c1ccccc1`, the activity change is reported as inconclusive: -30.7%.
In the case of `O=C(COC(=O)CC1CC2CCC1C2)Nc1cc([N+](=O)[O-])ccc1F` (configuration not stated), the activity change is reported as active: -53.8%.
With `CC(C)Cc1nnc(NC(=O)CCC(=O)N2CCN(c3ccc(Cl)cc3)CC2)s1` the activity change was inconclusive: -30.1%.
In the case of `O=C1C2C3C=CC(C3)C2C(=O)N1c1ncc([N+](=O)[O-])s1` (configuration not stated), the activity change is reported as inactive: 6.51%.
With `C[C@]12C=CC(=O)C=C1CC[C@@H]1C2C(O)C[C@@]2(C)C1CC[C@]2(O)C(=O)COC(=O)CCC(=O)NC(CC(=O)O)C(=O)O` (some centres not stated) the activity change was inconclusive: -40%.
With `COc1cccc2sc3cc(C#Cc4ccccn4)ccc3c(=O)c12` the activity change was inconclusive: -36.9%.
In the case of `C=CCC[C@@H](Cc1ccc(F)cc1)C(=O)O[C@H](CNC(=O)[C@H](CC=C)CC(=O)N(CCO)Cc1ccccc1)c1ccccc1`, the activity change is reported as active: -58.8%.
For `COC(=O)c1ccc(CSc2nc3ccccc3c(=O)n2-c2cccc(OC)c2)o1`, the activity change was inconclusive: -33.8%.
In the case of `COc1ccc(-c2noc(CN3CCCCC3c3nccn3C)n2)cc1` (configuration not stated), the activity change is reported as inactive: -21%.
For `CC(=O)N1c2ccc(Cl)cc2C2C=CCC2C1c1cccc2ccccc12` (configuration not stated), the activity change was inconclusive: -47%.
In the case of `CC(C)c1cc(C(N)=O)c(NC(=O)c2cccc(COc3ccc(Br)cc3)c2)s1`, the activity change is reported as active: -75.7%.
With `CCn1cc(C(=O)NCCC2=CCCCC2)c(=O)c2cc(S(=O)(=O)N(C)C)ccc21` the activity change was inconclusive: -30.3%.
For `CCCN1CCc2c(sc(NC(=O)c3ccc(S(=O)(=O)N4CCN(C(=O)OCC)CC4)cc3)c2C(N)=O)C1`, the activity change was active: -98.1%.
For `C#CCOCCOCCOCCNc1nc(N2CCN(C(=O)CCCCCCCCCCNC(=O)[C@@H](CCSC)n3cc(CCO)nn3)CC2)nc(N2CCN(C(=O)CCCCCCCCCCNC(=O)[C@H](CCSC)n3cc(CCO)nn3)CC2)n1`, the activity change was inconclusive: -33%.
For `CC1=C(C(=O)OC(C)(C)C)C(c2cccc3ccccc23)NC(=O)N1` (configuration not stated), the activity change was inactive: 38.9%.
With `COCc1c(C(=O)N/N=C\c2cccs2)nnn1-c1nonc1N` the activity change was active: -67.8%.
In the case of `Cc1ccc(S(=O)(=O)NCc2ccc(C(=O)N3CCN(Cc4ccccc4)CC3)cc2)cc1`, the activity change is reported as active: -79.4%.
In the case of `CC(Oc1ccccc1)C(=O)N1CCN(c2ccc(N3CCCCC3)nn2)CC1` (configuration not stated), the activity change is reported as inactive: 6.36%.
For `O=S(=O)(Nc1cc(C(F)(F)F)ccc1N1CCOCC1)c1ccc2ccccc2c1`, the activity change was inconclusive: -47.2%.
For `Nc1nc2n(n1)C(c1cccs1)CC(c1ccc(Br)cc1)N2` (configuration not stated), the activity change was inconclusive: -46.3%.
For `O=C(CCN1CCCC1Cc1ccccc1)c1ccc2c(c1)OCCO2` (configuration not stated), the activity change was active: -101%.
For `O=C(Nc1cnccn1)c1cccs1`, the activity change was inactive: -9.8%.
With `C=CCOc1ccc(/C=C2/C(=O)ON=C2C)cc1OC` the activity change was active: -97.1%.
For `COc1ccc(F)cc1-c1cc(C(=O)Nc2ccc(C)c(NS(C)(=O)=O)c2)[nH]n1`, the activity change was active: -53.7%.
For `Cc1ccccc1-c1nc(CS(=O)(=O)CC(=O)N2CCc3ccccc3C2)c(C)o1`, the activity change was inconclusive: -35.1%.
For `CCOC(=O)c1ccc(NC(=O)NCc2ccccc2OC)cc1`, the activity change was inactive: -1.07%.
In the case of `Cn1c(=O)n(CCc2ccccc2)c(=O)c2c1nc1n2CCCN1CCc1ccccc1`, the activity change is reported as inconclusive: -35.5%.
With `CCOC(=O)C1=C(c2ccccc2)N=c2sc(=Cc3cc(OC)c(OC)c(OC)c3)c(=O)n2C1c1cccs1` (configuration not stated) the activity change was inconclusive: -40.4%.
With `Cc1cccc(C(=O)OCC(=O)c2c(C)[nH]c3ccccc23)c1O` the activity change was inactive: 0%.
For `CC(C(O)c1ccc(O)cc1)N1CCC(Cc2ccccc2)CC1` (configuration not stated), the activity change was inconclusive: -31.3% and inconclusive: -38.7%.
In the case of `COc1ccc(NC(=O)C2Cc3c(-c4ccccc4)ccnc3O2)cc1OC` (configuration not stated), the activity change is reported as inconclusive: -35.9%.
With `Cc1cc(C)c(C)c(S(=O)(=O)N2CCNCC2)c1C` the activity change was inactive: -0.0704%.
In the case of `COc1cc2c(cc1OC)CN(C(=O)CCCOc1ccc(Cl)cc1Cl)CC2`, the activity change is reported as inconclusive: -34.2%.
For `COc1ccc(C(=O)NC2CC2)cc1OC1CCN(Cc2ccc(F)cc2Cl)CC1`, the activity change was inconclusive: -30.5%.
For `NC(=O)c1sc2nc(-c3ccco3)ccc2c1N`, the activity change was active: -67.8%.
With `Cc1ccc2c(c1)[C@H]1[C@H](CO2)[C@H](c2ccccc2)[C@]2(C)C(=O)Nc3cc(F)c(F)cc3C(=O)N12` the activity change was inconclusive: -48.4%.
For `CCOc1ccc(CCN2C(=O)C(=O)N([C@@H](CC(C)C)CN3CCC[C@H]3CN3C(=O)C(=O)NC[C@@H]3CC(C)C)C[C@@H]2Cc2ccc(O)cc2)cc1`, the activity change was active: -71.8%.
In the case of `CN(c1cccc(NC(=O)c2ccc(C(C)(C)C)cc2)c1)S(C)(=O)=O`, the activity change is reported as inconclusive: -38%.
With `O=C(O)Cn1nnc(-c2ccccc2)c1COc1ccccc1` the activity change was inactive: 8.38%.
With `CCOC(=O)C1=C(C)NC2=C(C(=O)CC(c3cccs3)C2)C1c1cccs1` (configuration not stated) the activity change was inconclusive: -37.1%.
With `Cc1ccc(CNC(=O)c2cn(C)c3ccc(S(=O)(=O)N4CCOCC4)cc3c2=O)cc1` the activity change was inconclusive: -33%.
In the case of `Cc1ccc(C(=O)Nc2ccccc2-c2ccccc2)cc1S(=O)(=O)Nc1ccccc1`, the activity change is reported as active: -69.2%.
With `CC(=O)Nc1ccc(CNc2nc(NCCN(C)C)nc3cc(-c4ccccc4)sc23)cc1` the activity change was active: -108%.
For `Cc1cccc(-c2nc(=S)c3c(o2)CCCC3)c1`, the activity change was inactive: -1.62%.
In the case of `Cc1ccc(S(=O)(=O)NC(C)(C)CN2CCC(Cc3ccccc3)CC2)cc1`, the activity change is reported as inconclusive: -36.1%.
In the case of `COc1cc(-c2nnc(-c3ccc(N4CCOCC4)cc3)o2)cc(OC)c1OC`, the activity change is reported as inconclusive: -36.1%.
For `CCCc1cc(=O)[nH]c(SCC(=O)Nc2oc(C)c3c(C)n[nH]c(=O)c23)n1`, the activity change was inactive: 48.5%.
For `Cc1ccccc1C(=O)OCCN1CCOCC1`, the activity change was inactive: 7.51%.
In the case of `O=C(c1cc2nc(-c3cccs3)cc(C(F)(F)Cl)n2n1)N1CCCc2ccccc21`, the activity change is reported as inconclusive: -42.5%.
With `N#CC(C(=O)c1ccco1)c1ccccn1` (configuration not stated) the activity change was inconclusive: -42.6%.
For `COc1ccc(CCN2CC(O)=C(c3nc4ccccc4c(=O)[nH]3)C2=N)cc1OC`, the activity change was inactive: -19.1%.
For `Cc1ccc(CN2CC(=O)N3[C@H]4c5ccccc5OC[C@@H]4[C@H](c4ccccc4)[C@]3(C)C2=O)cc1`, the activity change was inconclusive: -49.1%.
With `CC(=O)c1cccc(S(=O)(=O)N2CCCC(c3nc4c(nnn4Cc4cccc(Cl)c4)c(=O)[nH]3)C2)c1` (configuration not stated) the activity change was inconclusive: -39.9%.
With `COc1ccc2nc(SCC(=O)N3CC(=O)Nc4ccccc43)c(C#N)cc2c1` the activity change was inconclusive: -47.2%.
With `O=C(NCc1ccncc1)c1ccc(Oc2ccccc2)cc1` the activity change was active: -65.9%.
In the case of `CC(C)NC(=O)NC(=O)COC(=O)c1c2c(nc3ccccc13)CCC2`, the activity change is reported as inconclusive: -34.4%.
For `O=C(O)C1CCCN1c1nc(C(F)(F)F)nc2ccccc12` (configuration not stated), the activity change was inactive: 28%.
In the case of `COc1ccc(C(=O)N2CCCCC2C(=O)Nc2ccc(-n3nc(C)cc3C)cc2)o1` (configuration not stated), the activity change is reported as inconclusive: -30.5%.
For `CS(=O)(=O)N(CC(=O)N/N=C/c1cc2c(cc1Br)OCO2)c1ccccc1Br`, the activity change was inconclusive: -47.5%.
With `COc1ccc(C2=CC(=O)C[C@H](c3ccc(F)cc3)C2)c(OC)c1` the activity change was inconclusive: -32.1%.
